± gives the standard deviation of the averaged measurements. Some of the results follow.
system: PfAP2-I AP2 domain 3 (GST-tagged); experiment: gcPBM binding intensity (ln(normalized median fluorescence intensity)); higher = stronger DNA binding
How it was run: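 Binding intensity values are the highest Masliner-normalised natural-log median intensity among replicate spots of either probe orientation. The binding step lasted 1 h in 1× PBS with 1% milk, 0.2 mg/ml BSA, 0.5% salmon testes DNA and 0.03% Triton X-100, using GST-tagged P. falciparum DNA-binding domains expressed in E. coli on an Agilent 4 × 180k array of primer-extended double-stranded 36-bp intergenic genomic probes plus negative controls. Alexa488 anti-GST antibody and a 488 nm scan detected bound protein.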

In order of rising “gcPBM binding intensity (ln)” value:
1. TATACATATATAATATGTACATATATTTTTTTTTAA [XGTACX_site2938]  7.38 ± 0.24
2. GAAAAAAAAAAAAAAAAAAAAAAATTCATTTTTTTT [XGTACX_negctrl_site54]  7.38 ± 0.66
3. AAAAATTAAATATAAAGTACAAAATTAAAATCTTAA [XGTACX_site931]  7.38 ± 0.41
4. TTTATTTATTATTAAAGTACTAAATTATATTATTAT [XGTACX_site2565]  7.39 ± 0.53
5. AAATATTATCAAACATAAATTATTTTTATCCGTATA [CACACA_negctrl_site771]  7.46 ± 0.69
6. AAAAAAATATAGATCTGTACATATATAAATATATGT [XGTACX_site511]  7.46 ± 0.35
7. AAAAATAAAATAAAATAAAATAAACATACCATATGT [CACACA_negctrl_site594]  7.46 ± 0.63
8. AATCTAATTAAAATCACACATATATTCGTCGTAATA [CACACA_site5855]  7.47 ± 0.47
9. ATTCAAAAAAAATCAACACACAGTTACATAGCTCAA [CACACA_site2234]  7.5 ± 0.49
10. AAAATTATAATAATATGTACTTAAAAAATTTATATA [XGTACX_site632]  7.54 ± 0.2
11. ATAATCATTTGGATATTCACAATATTTAAAATTAAA [CACACA_negctrl_site909]  7.55 ± 0.54
12. TATATGTATTTATATACACACATATTCTTTTGACAC [CACACA_site1206]  7.58 ± 0.38
13. TTATAAATATAATATTGTACAAAATTTTAACATGTC [XGTACX_site5259]  7.61 ± 0.49
14. TTTCCATATATAGAACGTACAAAGATCTTTGTTACT [XGTACX_site8972]  7.63 ± 0.64
15. TAATATCCATATAAAACACACATCAAGGTTGTTAAC [CACACA_site175]  7.64 ± 0.61
16. GTTATATAAAAATATTGTACATTCTATATAAAGTCA [XGTACX_site4418]  7.66 ± 0.45
17. ATAAATATATGAAATATACACACTTCTTTGGTATTA [CACACA_site456]  7.67 ± 0.52
18. TAGCTTTTGCCTTTTTTTAAAAAAAAATAAATAAAT [TGCATGCA_negctrl_site242]  7.67 ± 0.46
19. GTTATAAATAAATACACACATACAAAAATATGACGT [CACACA_site1154]  7.67 ± 0.45
20. AATATATATATATATAGTACATATTTTTATTCATTA [XGTACX_site2156]  7.68 ± 0.31
21. CAAAAGTATAATAATACACACACTTTAAAAGTTAAA [CACACA_site3343]  7.7 ± 0.38
22. ATACATATATATATGTGTACATATTATATATACATA [XGTACX_site8420]  7.71 ± 0.29
23. TATACAAAATAACTAGCACACATATGTATAAACATA [CACACA_site9236]  7.73 ± 0.47
24. GCACATATATATGAAACACACATGGAAACATCTCTT [CACACA_site3966]  7.75 ± 0.59
25. TCACATACATGAAAATGTACTTTTATAATTCCATAA [XGTACX_site1836]  7.75 ± 0.45
26. ATTCCATAAGTAAACACACAAATGCCAAAATTTTAT [CACACA_site7491]  7.76 ± 0.59
27. TAAATAATTTCACGAATGACAAAGATATAATAAGTT [CACACA_negctrl_site1430]  7.76 ± 0.76
28. TATGACCTTAGAAATTGTACAAGAAAAAATGTTACA [XGTACX_site7084]  7.78 ± 0.58
29. ATTTCCTGGCTACTGTGTACTGACCTCCAGACTGCT [XGTACX_site2005]  7.79 ± 0.98
30. ATTTGTGAATATATTCGGTGAACTTTGTTAACACAT [XGTACX_negctrl_site445]  7.79 ± 0.61
31. AAATCACCTTAAGAACGTACAAACAGAAAAAAATTA [XGTACX_site4623]  7.83 ± 0.54
32. AACGAAAACACTACGTGTACCAAATGTCCTGCCAAC [XGTACX_site5735]  7.83 ± 0.71
33. ATAAATACACACAAGTGTACATACTTCTATAAATAT [XGTACX_site1845]  7.83 ± 0.28
34. ATCTCTATGATATATACACACAAATATACAAAAAAA [CACACA_site6605]  7.84 ± 0.51
35. TTATTATTTTATAACACACACATATAGATTATAGCT [CACACA_site6787]  7.84 ± 0.53
36. TTTATTATATTTATATGTACTTATATAATATATGCA [XGTACX_site1906]  7.86 ± 0.3
37. ATATATGTTAATAATTGTACAAATCGATAATATATA [XGTACX_site5076]  7.86 ± 0.5
38. AATTCATATACAAAAAGTACAAACGAAAAATAAAAA [XGTACX_site2900]  7.86 ± 0.45
39. TATATATGGTATAATTGTACTAACGCCAACTATACC [XGTACX_site5853]  7.86 ± 0.3
40. TTACAAATGGTTTACACACACATAATTGTATCAATT [CACACA_site4167]  7.86 ± 0.23
41. TATTATATTTGTATGTGTACTTATATGGTTGTAATA [XGTACX_site4548]  7.87 ± 0.26
42. ATATTATAATAAATGTGTACATATTGTAGAAATATT [XGTACX_site8101]  7.88 ± 0.5
43. CATAAAAATATTTTCTGTACATATTCATATGACGTT [XGTACX_site3406]  7.91 ± 0.46
44. TTTTAACTTTTATATTGTACGTTGTTTATTTTATTT [XGTACX_site7504]  7.91 ± 0.77
45. ACTTATTATTAATATTGTACTCTTGAAAATTGTGGA [XGTACX_site6315]  7.91 ± 0.4
46. TGCATATACATATGTAGTACAATAATTTGAAAAAAA [XGTACX_site5239]  7.92 ± 0.43
47. ATCGTGAATAATATCTGTACATATGAACACATATAT [XGTACX_site952]  7.92 ± 0.54
48. AAAGAGAGTATCTAATGTACGTATGTATGTATATAT [XGTACX_site1780]  7.92 ± 0.44
49. CGTATGAAACATATATGTACTTATAAAAATATAACC [XGTACX_site7539]  7.95 ± 0.4
50. CTTATGTGTATAAGTAGTACTAAATTAAAATAATAT [XGTACX_site2681]  7.95 ± 0.29
51. TAATATATGAGAAATTGTACAGAAAGGAATATGCTT [XGTACX_site5300]  7.96 ± 0.8
52. ATATGTAATAATAAATGTACGAAACATTGAACGATG [XGTACX_site1266]  7.97 ± 0.65
53. TATATATATTTATACACACAAACATAATACTACTTA [CACACA_site2022]  7.97 ± 0.5
54. TAAAGGTGAACAATACGTACATAAGAACTTATGAGG [XGTACX_site4216]  7.97 ± 0.67
55. ATATATATTTTTTAAACACACACATAAATATTTGTG [CACACA_site8936]  7.97 ± 0.38
56. AGGCATAATTAAAAGTAACAATTATGGAAACGGAGT [GTGCAC_negctrl_site623]  7.99 ± 0.75
57. TTTTGTATTTATGGATGTACATAATATGTTTTAAAC [XGTACX_site3278]  8 ± 0.45
58. TCTCTAATTTTTAATACACACAAATAAATAAATAAA [CACACA_site216]  8.02 ± 0.57
59. CATATATAAATATAAATATATATATATATATATATG [XGTACX_negctrl_site493]  8.03 ± 0.39
60. AAAAAAAAAAAAAAATGTACATATAAATAAATATAT [XGTACX_site7248]  8.06 ± 0.42
61. TATTATATATTAAATGCATGTAAAAATAATATTAAA [TGCATGCA_site643]  8.11 ± 1.3
62. ATAAATAAAATTAGGTGTACTTTAATTAAAGAAAAT [XGTACX_site3319]  8.17 ± 0.33
63. AATTATTTACCCTATACACACAAAACACGCTAAAAA [CACACA_site1211]  8.2 ± 0.54
64. TTCTTCAAGGAAAACACATGCGCATTTTCACCAATT [TGCATGCA_site11]  8.23 ± 1
65. ATGGAAAAAAAGCATTGTACATTTAAAGAAAAACAG [XGTACX_site6639]  8.35 ± 0.45
66. ACAACATAGAGGGGCACACACATATATACATAAAAA [CACACA_site6954]  8.63 ± 0.085
67. TATGTATGTATTAATGCGCACACAAAAAATAACAAT [CACACA_site8551]  8.95 ± 0.38
68. AAAATAAAAAATATAACACACAATAAATATATATAT [CACACA_site1926]  8.965 ± 0.021
69. AAAAAAAAAAAAAACACACACATGCACCTCATATTA [CACACA_site556]  8.99 ± 0.3
70. ATGTTTTATATTATTAATATATATATATATATATAT [CACACA_negctrl_site331]  9.14 ± 0.55
71. ATATATATATATATATGTACATATGTATATTTTTTT [XGTACX_site1299]  9.15 ± 0.52
72. AATACACAAATATATTGTACATATATATATATATAT [XGTACX_site2440]  9.24 ± 0.57
73. AGGTTCCCAAAATGCACACCAATGAAATTATTTATT [CACACA_site553]  9.31
74. ATATATATATATATGTGTACACAAAAAATATTATAT [XGTACX_site5741]  9.32 ± 0.54
75. ATATATATATATATAACACACGTGTATTTATCTGTA [CACACA_site5922]  9.34 ± 0.58
76. ATATATATATATATAAAGTGAAGTATGAGGGAAATA [XGTACX_negctrl_site497]  9.38 ± 0.49
77. TATATATATATATGTGCATGTTCCCCATGCTTCCAT [TGCATGCA_site366]  9.43 ± 0.3
78. TTTCGTAACTATTTGTGTACATATATATATATATAT [XGTACX_site2920]  9.57 ± 0.45
79. AAAAAATTAACGAGTGCACACATATTTAGATAAAAT [CACACA_site8958]  9.86 ± 0.18
80. TAGATTCTTGAATAAGTGCAAAATATAATATTTATT  9.975 ± 0.007
81. AATGTATATTATTGCACACATATATAAAATTATGCT [CACACA_site1096]  10.1 ± 0.27
82. TTTTTTTTTATGTGCACACAAAAGATGCTTATATTT [CACACA_site2348]  10.69 ± 0.092
83. ATTTTGTGCGCACACACATGCAAAAAGAAATATGAT [TGCATGCA_site261]  10.74 ± 0.021
84. ATAAATATTGGGTGCACACACATAATATATATATAT [CACACA_site2272]  10.8 ± 0.45
85. TCTGTAAATACGTGCACACACAAATCACAAATGTGA [CACACA_site330]  10.78 ± 0.099
86. ATATAAAATACATGGGTGCAATATATTAAACAAATA [GTGCAC_site9421]  11.2 ± 0.48
87. TATGTGCACCCATATACACACACAAATACAATGATA [CACACA_site8295]  11.3 ± 0.85
88. ATTTTCTTTTCCATAGTGCAATATAATTATCCATCA [GTGCAC_site9547]  11.3 ± 0.39
